Reference: patent publication US20070093418A1 (Amgen, published 2007)

How the values were obtained:
[1] = target: T1, murine angiopoietin-2 (Ang-2) (murine, UniProt O35608 19-496, limits assumed); experiment: neutralization ELISA (Tie-2-Fc vs coated mAng-2)
T1 construct: also called mAng-2
T1 sequence (looked up): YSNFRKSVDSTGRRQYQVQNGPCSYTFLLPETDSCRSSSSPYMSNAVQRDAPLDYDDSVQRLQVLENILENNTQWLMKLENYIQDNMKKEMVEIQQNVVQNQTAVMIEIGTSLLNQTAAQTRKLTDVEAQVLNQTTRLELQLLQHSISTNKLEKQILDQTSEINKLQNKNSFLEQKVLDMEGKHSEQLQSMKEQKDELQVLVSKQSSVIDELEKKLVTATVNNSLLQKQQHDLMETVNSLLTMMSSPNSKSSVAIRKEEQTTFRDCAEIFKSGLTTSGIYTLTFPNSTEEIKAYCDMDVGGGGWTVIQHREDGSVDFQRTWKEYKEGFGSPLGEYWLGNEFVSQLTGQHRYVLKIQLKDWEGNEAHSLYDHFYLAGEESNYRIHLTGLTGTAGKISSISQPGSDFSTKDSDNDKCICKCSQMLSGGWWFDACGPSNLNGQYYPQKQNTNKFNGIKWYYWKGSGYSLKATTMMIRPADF

[2] = target: T2, human angiopoietin-2 (Ang-2) (human, UniProt O15123 19-496, limits assumed); experiment: neutralization ELISA (Tie-2-Fc vs coated hAng-2)
T2 construct: Several preparations are used (R&D Systems protein, biotinylated R&D protein, 293T conditioned media); also called hAng-2; huAng-2
T2 sequence (looked up): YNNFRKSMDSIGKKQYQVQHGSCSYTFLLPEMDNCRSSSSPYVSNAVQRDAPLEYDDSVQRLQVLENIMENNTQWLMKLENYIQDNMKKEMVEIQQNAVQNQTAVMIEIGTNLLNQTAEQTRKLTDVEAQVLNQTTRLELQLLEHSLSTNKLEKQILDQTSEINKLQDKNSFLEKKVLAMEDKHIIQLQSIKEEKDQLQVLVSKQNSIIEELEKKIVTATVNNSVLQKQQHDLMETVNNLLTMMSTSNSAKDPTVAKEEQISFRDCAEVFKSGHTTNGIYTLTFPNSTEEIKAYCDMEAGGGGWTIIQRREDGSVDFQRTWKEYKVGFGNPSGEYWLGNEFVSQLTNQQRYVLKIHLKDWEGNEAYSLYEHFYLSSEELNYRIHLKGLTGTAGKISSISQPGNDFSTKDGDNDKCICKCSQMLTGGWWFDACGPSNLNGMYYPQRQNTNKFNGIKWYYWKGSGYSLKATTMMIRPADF
Protocol: Microtiter plates to which human Ang-2 polypeptide was bound were prepared as described for the Affinity ELISA. […] Plates were incubated at room temperature for about 1 hour, after which they were washed five times with PBS containing about 0.1 percent Tween-20. About 100 microliters per well of TMB substrate (described above) was then added and color was allowed to develop. Absorbance was then read in a spectrophotomer at 370 nm.

IC50 [1]: 0.8 nM
IC50 [2]: 0.65 nM
B1: 2xL1 (N) (Fc fusion)
chain: MGAQKFNPLDELEETLYEQFTFQQGGGGGGGGKFNPLDELEETLYEQFTFQQLEGGGGG[human IgG1 Fc not written out]
